Reference: the supplement of paper PMC3334620
In all, about 33,000 sequences were measured (“E-score (-0.5 to 0.5)”: median about -0.01, highest 2% from about 0.26 on). This is one part of the list.

molecular target: Ste12 (UniProt P13574); test: PBM E-score (8-mer binding enrichment) (E-score (-0.5 to 0.5)); higher = stronger / more preferred TF binding; most listed sequences are background and not binding sites; conditions: protein concentration: 200 nM; construct: GST-DNA-binding domain
Procedure, shortened: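 Using PURExpress in vitro transcription/translation, GST-tagged yeast transcription factors were made in full-length or DNA-binding-domain form. These were applied at about 100-200 nM to double-stranded universal all-10-mer Agilent arrays, and bound protein was detected with fluorescent anti-GST. Scans were normalised with masliner before the Universal PBM Analysis Suite assigned E-scores to ungapped eight-base words pooled with their reverse complements.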

| Sequence | PBM E-score |
| --- | --- |
| CACCGCCA | 0.0129 |
| GCGTCGCC | -0.0467 |
| CAATTGCC | -0.0411 |
| GGATCACA | -0.155 |
| TAGAGAGA | -0.164 |
| CCCCAGGG | -0.178 |
| ACAAATCA | 0.0844 |
| AGAGATGG | 0.048 |
| GTGATAAC | 0.091 |
| CAGACCCC | -0.338 |
| ACCTCTGG | 0.0713 |
| AAACCCTA | 0.0499 |
| AGTAACAG | 0.103 |
| GACGAATC | 0.00366 |
| CGCTCATA | -0.0661 |
| AGATACCC | -0.0442 |
| AAGCCCGG | -0.0297 |
| ACATGAGC | -0.0857 |
| GAACGATA | -0.00391 |
| CGGGGGCA | -0.0771 |
| CAACCAAG | -0.00981 |
| CTCGAAAA | 0.0773 |
| CAAAAACG | 0.177 |
| ACTCTTCA | 0.04 |
| ACCGGTTG | -0.0726 |

| Sequence | PBM E-score |
| --- | --- |
| CGTCTCTC | -0.016 |
| GTGACGCA | -0.181 |
| AAGTATAC | 0.0374 |
| ACGTCTGG | -0.129 |
| ACTCCCCC | -0.202 |
| ACTTGAAC | -0.0517 |
| CACTAATG | 0.122 |
| ACCAGTCT | -0.25 |
| ATCTTAGA | 0.226 |
| ATTATGTA | 0.117 |
| ATACGCTA | 0.0954 |
| AGACGGAG | -0.164 |
| GATATGAA | 0.15 |
| CACAGCGA | 0.0278 |
| CCGTTACC | 0.0387 |
| GTCGAATA | 0.0131 |
| CATAATGG | 0.0987 |
| GTAAAAAA | 0.217 |
| TGGCTAAA | 0.0428 |
| GTGCGCCA | -0.268 |
| GATCAAAA | 0.194 |
| AAACGAAG | 0.192 |
| CGACGTTC | -0.233 |
| CTCTGCAA | -0.0864 |
| ATTCCTAA | 0.136 |

| Sequence | PBM E-score |
| --- | --- |
| TGTCATAA | 0.129 |
| GCGACTCC | -0.308 |
| AGCAATGC | -0.115 |
| AGTCGATA | 0.0748 |
| AGATGGGA | 0.0549 |
| AGACAGAT | -0.0621 |
| ATAAGGCC | -0.263 |
| AGTCTGGG | -0.0681 |
| AACACGGC | 0.0148 |
| AACTCTTG | -0.111 |
| CCTTGTTA | -0.0774 |
| ATACCATC | -0.061 |
| ATCTGATG | 0.109 |
| GCGGAAAC | 0.0514 |
| ATAATCGG | 0.173 |
| ACGGTGTA | -0.073 |
| CGTCCCCC | -0.361 |
| AGTCGTTA | 0.0846 |
| CTAGTTGC | 0.00134 |
| GCGCACAA | 0.103 |
| AAGAATAT | 0.0884 |
| ACAGTGCG | -0.14 |
| GAGCGATA | -0.00925 |
| ACTCCTCG | 0.0579 |
| ATCTCGAC | 0.0726 |

| Sequence | PBM E-score |
| --- | --- |
| CGCAGATA | -0.0283 |
| GAATGGCA | -0.068 |
| CAGGAGGA | -0.222 |
| GACTACAA | -0.102 |
| ACGAGCGA | 0.0716 |
| TCCGTACA | 0.0902 |
| AGGCAGTA | -0.082 |
| TAACGAAA | 0.298 |
| GAACATAC | 0.00565 |
| ACAAAAAC | 0.201 |
| GGCAACAC | -0.0149 |
| GTATCTAA | 0.204 |
| CCCCCGAG | -0.0168 |
| AGGCCCGG | -0.253 |
| AGAAGTTA | 0.0794 |
| AGCGTACA | -0.282 |
| ATCATGGG | 0.0931 |
| CCCAATCG | -0.00616 |
| ACCAGCGT | -0.236 |
| CACAAGCA | -0.145 |
| GGGCAACA | -0.00131 |
| GATGATAA | 0.143 |
| ATTCAAGG | -0.0529 |
| AACTGAGA | -0.0335 |
| AAAAGGTG | -0.0244 |

| Sequence | PBM E-score |
| --- | --- |
| ATACTAGG | 0.119 |
| ATCACGCG | -0.0384 |
| AAGGGCCC | -0.11 |
| GATCATCC | -0.18 |
| ACAATTAG | 0.0572 |
| CCCGCACC | 0.0672 |
| AACCGGAT | 0.136 |
| ATGTTCCG | 0.0569 |
| GGGGTTAA | -0.0545 |
| CGGACGGA | -0.213 |
| AGAGACAT | 0.0522 |
| AGTGACGA | 0.178 |
| CACGTCCG | -0.138 |
| AGAGTTTA | 0.12 |
| GAGTGTAC | -0.112 |
| GTAGCACA | -0.0739 |
| ACCAATCC | 0.202 |
| AAACTGGT | 0.212 |
| CCTTGAAC | -0.125 |
| GACACTGA | 0.105 |
| ACAAGGCC | -0.177 |
| AGCTGGAT | -0.0353 |
| CTTATACA | 0.0205 |
| CTGATTTA | 0.0833 |
| CTCAAATA | -0.0402 |

| Sequence | PBM E-score |
| --- | --- |
| GGTAAGAC | -0.0504 |
| CTTGCATC | -0.0646 |
| ATGCCGCC | -0.149 |
| CATGCAAC | 0.185 |
| AAAAGACC | 0.127 |
| CCAGCGAC | -0.0616 |
| CTAATAAC | 0.0434 |
| AGTATAGG | 0.0154 |
| AATGCGTA | 0.0162 |
| GTGCGTGA | 0.0413 |
| ACTCTTTA | -0.106 |
| CAAGGCTA | -0.114 |
| ACATCCTA | -0.0862 |
| CTCGCGCC | -0.0247 |
| AGCGACTA | -0.043 |
| TAGCACCA | -0.083 |
| GCGAGTCA | -0.157 |
| CGCAACTC | 0.135 |
| ACCCAGGT | -0.218 |
| AGGTTAGG | 0.115 |
| AACAAAAA | 0.332 |
| ACGGAAAT | 0.106 |
| GAACGCAA | -0.0729 |
| ACTGCGTC | -0.0948 |
| ATCGTCGG | 0.00187 |

| Sequence | PBM E-score |
| --- | --- |
| ACTCGTTC | -0.13 |
| CTTGCGAA | 0.198 |
| GTTCCAGA | 0.113 |
| ATTCAATC | 0.126 |
| CGTTGATA | 0.206 |
| GGGCCAAA | -0.14 |
| CACTGTGG | -0.234 |
| GCACATCA | -0.00042 |
| TAGACTAA | -0.0441 |
| AGGAGATG | -0.18 |
| GCAGCAGC | -0.0451 |
| ACGTACAG | -0.205 |
| ACGACGCG | 0.0557 |
| GGTCAATA | -0.0181 |
| ATGGTTCG | 0.143 |
| GAAGGTCC | -0.191 |
| ACACCTGG | -0.161 |
| CGATGGGA | 0.0287 |
| CCAGGGAA | -0.16 |
| GTGTCACA | 0.202 |
| TGGGTTAA | -0.0775 |
| ACGTTACC | -0.0815 |
